Variants at the floor of the assay are shown more often than the library holds them.
B1: TPR 5TU (parent)
chain: GGAUCUUCUCGAUCUAACAAAAAAGACAAAUCUGCCACAAAGCUUGAGAGCAUCUUCGGAUGCAGAGGCGGCAGCCUUCGGUGGCGCGAUAGCGCCAACGUUCUCAACUAUGACACGCAAAACGCGUGCUCCGUUGAAUGGAGUUUAUCAUG

Variants of: B1
Assay: polymerase ribozyme fitness, log enrichment relative to wild type (log ratio); higher = more active; in vitro selection for triplet polymerase activity
Outline: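 Mutant libraries for each subunit of a heterodimeric triplet polymerase ribozyme were made by PCR and then transcribed. Each library underwent one round of in vitro selection in triplicate: annealing with a biotinylated primer, the partner subunit and triplets, frozen incubation at −7 °C, gel excision of extended constructs, streptavidin-bead capture and RT-PCR. Input and output libraries were Illumina-sequenced, and only genotypes with ≥10 input reads and ≥1 read per output were kept. Fitness is the logarithm, base 2, of genotype enrichment over wild-type enrichment, computed from inverse-variance-weighted replicate averages.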

Variant	polymerase ribozyme fitness (log ratio)
U56G C79U U90A A107U C114G	≤ -4.2
G58A A91C	≤ -4.2
C57G G65A U134C	-1.35
C57A U82G G84U C95A	-0.701
G58C A66U G80A C95U C96U U144G	≤ -4.2
G58C G71C A142C	≤ -4.2
C57U G80A C93U G136A A138C A147C	≤ -4.2
G58C G84U G136U	-3.72
U56G C79U C85U A98G	≤ -4.2
C57A A107U C108G C114G G117C	≤ -4.2
G58C G70C G141A	≤ -4.2
C57A G84A A107C U111C	≤ -4.2
C57U C76U G81C C95U U130G	≤ -4.2
U56G G94A A110U A138U U139A	≤ -4.2
U56G A64G G65C A91C C93U	≤ -4.2
C57A A60G U101A U109A A113U	-3.65
C57U G67C U78G C103U	≤ -4.2
C57A U102C C103U	-2.76
C57A C87A A107G C129U G136U U139A G140U C149G	≤ -4.2
G58A G59U U61A G86A A97G C116U C132G	≤ -4.2
C57U C85G	-2.48
C57U A113C	-2.27
C57U G58C G59C G80A U145G C149U	≤ -4.2
C57G C72G C79U C103G	≤ -4.2

Variant	polymerase ribozyme fitness (log ratio)
C57G C114A	-3.32
C57G G86U C99U U101G U130A U135C U145G	≤ -4.2
U56G C76A C79G U82A C93G U102G C103U C125A C129U U145G A150U	≤ -4.2
C57G G94C A98G C105U	-0.386
G58C C63U A120C	-0.534
C57U U82A C93A G112U C116U	≤ -4.2
U56G G68C C85A C114A	≤ -4.2
C57G A91G A147C	-3.13
C57U A138U U145G	-3.98
C57U C85U A89C U127A	-4.18
C57U G71C G86A U104A	≤ -4.2
C57G C96G U145A	-0.71
U56C U77A C129A	≤ -4.2
U56G G68C	≤ -4.2
C57U U82G C87U A97U G128A G136U	≤ -4.2
C57U G83A U104C A138U A147C	≤ -4.2
G58C C96U A98G A121G	-0.614
C57A A73U A91U	≤ -4.2
C57A C103G G124U U135G	≤ -4.2
C57U G80A C87U C96U A113U G141U	≤ -4.2
G58A A64G A91C A147U	≤ -4.2
C57A C93G	-3.05
C57G G59U A60G C85G A89U A97U	≤ -4.2
G58C G88U C129A G141U	≤ -4.2

Variant	polymerase ribozyme fitness (log ratio)
C57U C79A C85U G86A C93A A97G G140U	≤ -4.2
C57U C87G	≤ -4.2
G58C C79G C93U	≤ -4.2
C57U G70A U102G A147C	≤ -4.2
C57G C87G	≤ -4.2
G58A C85G G100U U144A	≤ -4.2
C57G C96A C103G U109G U146A	≤ -4.2
U56G G88U G92U C96U C125A	-3.87
G58C C79G A91G C123G G124U G141C	≤ -4.2
G58C G86U U104G	-1.93
C57G G62A A91U	≤ -4.2
C57U U102A C103U	-1.15
G58C C85U A89G G136A	-3.96
C57A A73G C108U G140A	≤ -4.2
C57G G67A U77C G83U C87G U102G	≤ -4.2
C57G C75U C108A A110G	≤ -4.2
G58C G94C C132A G152U	≤ -4.2
C57G G74C	≤ -4.2
G58A G92A C123G	-4.01
C57A C72G A73G C108U	≤ -4.2
G58A U77C G80U U90G C93A A121G A142G	≤ -4.2
C57A U77C U82A	≤ -4.2
C57G G68A G84U G126C U135G U144A	≤ -4.2
G58C A64G G86A	≤ -4.2

Variant	polymerase ribozyme fitness (log ratio)
C57U G59A G84U C129G	≤ -4.2
U56G G68U G92A C93A A106U A115U A150C	≤ -4.2
G58A G100U	-3.22
C57U G83U A137G	-1.92
G58A G62A C69A A91U C132A	≤ -4.2
G58A U135C	-1.39
U56G C96A C118U A137U G140C G141C	≤ -4.2
U56G C57A G81A A107C G117A	≤ -4.2
C57G C85U G117U C118G	-1.51
C57A G58A C79U G88U	≤ -4.2
C57G G67C	-4.16
C57A U104G A107C C114U U127C G143C	≤ -4.2
G58C G59C C79G C103G G143U	≤ -4.2
G58A A73G C116U	0.431
C57U C76A C93U C116A U151G	≤ -4.2
C57A A60C G84A G92A C118A	≤ -4.2
C57U C75U A107U U127C A150G	≤ -4.2
C57G G92U	-0.526
C57A G74U C85A U130G	≤ -4.2
C57A A60G G74U	-4.12
G58A C103U C118A C132A A138C	≤ -4.2
G58C C87A C95A C116A	≤ -4.2
G58A C72U C76A	-1.3
G58A U102G A121U	-2.85

Variant	polymerase ribozyme fitness (log ratio)
C57G G88U A89U A97U G136A	≤ -4.2
C57U C75G C85G G100A	≤ -4.2
C57U G70C U104A	≤ -4.2
G58C C79A G86A U146C	≤ -4.2
C57G G71A G88C C116U A138U	≤ -4.2
C57G U82C U90A	≤ -4.2
U56G C79A G140A	≤ -4.2
C57U G58U	0.297
C57G U77G A106C A121C G128A	≤ -4.2
G58C C96G	-1.88
C57G C93A C99G	≤ -4.2
C57G C79G A97U	≤ -4.2
C57G G65U A66U G80U C96U	≤ -4.2
G58A G65C C85U A119G G128A U134A G141A A150G	≤ -4.2
C57U C87U A113C A119G	-3.09
G58A C76G G143U	≤ -4.2
G58C C103G U109G G133A	≤ -4.2
G58A U90G G117A A142G	≤ -4.2
C57A C85G A89C C108U A142C	≤ -4.2
G58A	0.338
C57A A64G A66G C118U A147C G152U	≤ -4.2
U56C U109A	-1.87
C57A U104G A120U	-0.824
G58C C87G A98G	≤ -4.2

Variant	polymerase ribozyme fitness (log ratio)
C57A C105U	1.29
G58C A73U G92A A97U	≤ -4.2
C57G G83A C85G C114G C123U	≤ -4.2
C57U C87U G88U U111C G141A	≤ -4.2
C57G C93G C105A C114U	≤ -4.2
C57A C87U	-1.52
C57A G100C	≤ -4.2
C57U C93A G126C	-0.766
C57U A64C A89U G128U U148A	≤ -4.2
C57A U77G C79G A89U G94U A115U	≤ -4.2
C57A A73G C125A	-0.303
G58A G80U G84A G88A	≤ -4.2
C57A G58U	0.207
U56C G70C C85U C93G A97C A120C	≤ -4.2
C57U U102G A106U U148C	≤ -4.2
G58C G70C U130G	≤ -4.2
G58A C75G C125G C129A U151G	≤ -4.2
C57A G136A	0.714
C57U C87A C96A A113C C132A	≤ -4.2
G58A G83C G84C G126C G133C	≤ -4.2
C57U G126C	0.553
U56G U135A	-1.84
U56C C85A C131G	-3.7
U56C C132U	-1.47

Variant	polymerase ribozyme fitness (log ratio)
U56G G92U A97U C105U	-1.61
U56G A73G G117U C149G G152U	≤ -4.2
C57U U77C C93U U135A	≤ -4.2
G58A A73U C131A U144G U148A	≤ -4.2
C57U C85U G143A	-0.317
G58A A97U A107U	-4.18
C57G A98U	-0.592
C57U G58C A60U G88A C99A	≤ -4.2
C57A G68U U101G U135C	≤ -4.2
C57A G68U C85G G124C U151G	≤ -4.2
G58A U145G	0.851
U56C G59A G92U U135A	-2.19
G58A A60U G80C C96U	≤ -4.2
U56C G83C C85G C87A C108U U111G A150G	≤ -4.2
G58C G59A G84C G140U C149U	≤ -4.2
C57U G59U C69G C76G G88U U146A G152U	≤ -4.2
U56G C87A	≤ -4.2
C57U U151A	-4.18
G58A G59A C85G C93U C95A A137C	≤ -4.2
C57A G88U A120C G124A C149A	≤ -4.2
C57G C79A U148A	≤ -4.2
C57U G83A G88A A89G U134G	≤ -4.2
C57U G84A	-0.782
